# This is one part of the list.
# B1: Epa1-NP-mutant-E227G (Candida glabrata), Q6VBJ0 (protein)
# chain: MILNPALFLNKCVCIYTTLILLLLTNGGYATSSNDISLASKDPTTFPLGCSPDITTPKKGLSMELYSYDFRKKGSYPCWDAAYLDPNYPRTGYKSHRLLAKVDGVTGNINFYYHATKGCTPQLGHLPASYNYPKPLTMTNFTMLLYGYFRPKVTGFHTFTISADDLLFVNFGAGNAFDCCRRDSSADHFGNYQAYAIWGSKTAKDELTVHLDAGVYYPIRLFYNNRGYDGALSFTFKTESNENTVSDFSEYFFSLDDTEEGCPGLISYDSSCASVKTSKIIGIDYHTETPNENLVPITKTIYHLGIPCTGTTTTPLCGSGFYDPLANKCVTINTSSTSSVTKTTSHTTSKEVSFHSSISSQKTLIPKSIPSPYGPIKSQSIPTEMETSSEISSSEYAFSDVISTPSHSPYTKKHSSLNSSSYTSTVIHSLTSYSISQGIFSTSLSEQNITSKSSTDKFSTATSMSNNITQSSIIISQFSTNNENYTTTSMHTSSDKISTETLNNSISTTTSILFSNSSTILKNNTTIISSDKDTHYHPVNPTIVCSTNKTEIICASITQPSISNSNNHWSSSVLKFNSTTVRSTLPSSAGSNETSINVPFSSSTESNTSTSSTSTSNSKMVRSTLPSSAGSNETSISVPFSSSTESNTSTSSTSTSNSKMVRSTLPSSAGSNETSINVPFSSSTESNTSTSSTSTSNSKTVRSTPFSSAGIIMTSLSQRNNKSASSYASSNSKCYNTADSCRKVHSTPSYLLTSSYTSEGVDYDCSLVSTKLKINDTNCVNNKHTTKSCLKTSVTTTIPTLEIKTARKSSSNTIGLHSYPTSSPNKSISSAPIIGYISSFKTIKTASPSYQTSDLTTITTITSLNNPGSTAVENTHESNDKSRKTSSNDISSKHSVIKETKDAVESSNKSHQTNTLKCSSIIIASSSHNSYESLGGTTLTLTLSKVYSPQNNDTLPFLEISEVNPSRTVLPESSKMMQYLTSTEERNKTARNTIATNIVSISTFHFEGEGNAIRMGYTQLLLMLIGIIVMNIGT
# Tests used:
# Experiment in all cases: glycan array binding signal (z-score within array); higher = stronger binding
# Details in all cases: glycan notation: IUPAC condensed, linker removed; mutation: E227G
# [1] = target: Gal(b1-4)GlcNAc(b1-3)Gal(b1-4)GlcNAc(b1-2)Man(a1-3)[Gal(b1-4)GlcNAc(b1-3)Gal(b1-4)GlcNAc(b1-2)Man(a1-6)]Man(b1-4)GlcNAc(b1-4)[Fuc(a1-6)]GlcNAc
# Method in brief: (§1)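 Arrays were curated from the Consortium for Functional Glycomics database, 3228 in total, and kept only where the protein sequence was available. Binding is expressed as a within-array Z-score. This score was averaged across arrays of the same protein sequence at different concentrations or buffers and across linkers, and negative values can be read as non-binding.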
# [2] = target: Gal(b1-4)GlcNAc(b1-3)Gal(b1-4)GlcNAc(b1-2)[Gal(b1-4)GlcNAc(b1-3)Gal(b1-4)GlcNAc(b1-6)]Man(a1-6)[Gal(b1-4)GlcNAc(b1-3)Gal(b1-4)GlcNAc(b1-2)Man(a1-3)]Man(b1-4)GlcNAc(b1-4)GlcNAc
# Method in brief: as §1
# [3] = target: Gal(b1-4)GlcNAc(b1-3)Gal(b1-4)GlcNAc(b1-2)[Gal(b1-4)GlcNAc(b1-3)Gal(b1-4)GlcNAc(b1-6)]Man(a1-6)[Gal(b1-4)GlcNAc(b1-3)Gal(b1-4)GlcNAc(b1-2)Man(a1-3)]Man(b1-4)GlcNAc(b1-4)[Fuc(a1-6)]GlcNAc
# Method in brief: as §1
# [4] = target: Gal(b1-4)GlcNAc(b1-3)Gal(b1-4)GlcNAc(b1-3)Gal(b1-4)GlcNAc
# Method in brief: as §1
# [5] = target: Gal(b1-4)GlcNAc(b1-3)Gal(b1-4)GlcNAc(b1-3)Gal(b1-4)GlcNAc(b1-2)Man(a1-3)[Gal(b1-4)GlcNAc(b1-3)Gal(b1-4)GlcNAc(b1-3)Gal(b1-4)GlcNAc(b1-2)Man(a1-6)]Man(b1-4)GlcNAc(b1-4)GlcNAc
# Method in brief: as §1
# [6] = target: Gal(b1-4)GlcNAc(b1-3)Gal(b1-4)GlcNAc(b1-3)Gal(b1-4)GlcNAc(b1-2)Man(a1-3)[Gal(b1-4)GlcNAc(b1-3)Gal(b1-4)GlcNAc(b1-3)Gal(b1-4)GlcNAc(b1-2)Man(a1-6)]Man(b1-4)GlcNAc(b1-4)[Fuc(a1-6)]GlcNAc
# Method in brief: as §1
# [7] = target: Gal(b1-4)GlcNAc(b1-3)Gal(b1-4)GlcNAc(b1-3)Gal(b1-4)GlcNAc(b1-2)[Gal(b1-4)GlcNAc(b1-3)Gal(b1-4)GlcNAc(b1-3)Gal(b1-4)GlcNAc(b1-6)]Man(a1-6)[Gal(b1-4)GlcNAc(b1-3)Gal(b1-4)GlcNAc(b1-3)Gal(b1-4)GlcNAc(b1-2)Man(a1-3)]Man(b1-4)GlcNAc(b1-4)[Fuc(a1-6)]GlcNAc
# Method in brief: as §1
# [8] = target: Gal(b1-4)GlcNAc(b1-3)Gal(b1-4)GlcNAc(b1-3)Gal(b1-4)GlcNAc(b1-3)Gal(b1-4)GlcNAc(b1-2)Man(a1-3)[Gal(b1-4)GlcNAc(b1-3)Gal(b1-4)GlcNAc(b1-3)Gal(b1-4)GlcNAc(b1-3)Gal(b1-4)GlcNAc(b1-2)Man(a1-6)]Man(b1-4)GlcNAc(b1-4)GlcNAc
# Method in brief: as §1
# [9] = target: Gal(b1-4)GlcNAc(b1-3)Gal(b1-4)GlcNAc(b1-3)Gal(b1-4)GlcNAc(b1-3)Gal(b1-4)GlcNAc(b1-2)Man(a1-3)[Gal(b1-4)GlcNAc(b1-3)Gal(b1-4)GlcNAc(b1-3)Gal(b1-4)GlcNAc(b1-3)Gal(b1-4)GlcNAc(b1-2)Man(a1-6)]Man(b1-4)GlcNAc(b1-4)[Fuc(a1-6)]GlcNAc
# Method in brief: as §1
# [10] = target: Gal(b1-4)GlcNAc(b1-3)Gal(b1-4)GlcNAc(b1-3)Gal(b1-4)GlcNAc(b1-3)Gal(b1-4)GlcNAc(b1-2)[Gal(b1-4)GlcNAc(b1-3)Gal(b1-4)GlcNAc(b1-3)Gal(b1-4)GlcNAc(b1-3)Gal(b1-4)GlcNAc(b1-6)]Man(a1-6)[Gal(b1-4)GlcNAc(b1-3)Gal(b1-4)GlcNAc(b1-3)Gal(b1-4)GlcNAc(b1-3)Gal(b1-4)GlcNAc(b1-2)Man(a1-3)]Man(b1-4)GlcNAc(b1-4)[Fuc(a1-6)]GlcNAc
# Method in brief: as §1
# [11] = target: Gal(b1-4)GlcNAc(b1-3)Gal(b1-4)GlcNAc(b1-3)Gal(b1-4)GlcNAc(b1-3)Gal(b1-4)GlcNAc(b1-3)Gal(b1-4)GlcNAc(b1-2)Man(a1-3)[Gal(b1-4)GlcNAc(b1-3)Gal(b1-4)GlcNAc(b1-3)Gal(b1-4)GlcNAc(b1-3)Gal(b1-4)GlcNAc(b1-3)Gal(b1-4)GlcNAc(b1-2)Man(a1-6)]Man(b1-4)GlcNAc(b1-4)GlcNAc
# Method in brief: as §1
# [12] = target: Gal(b1-4)GlcNAc(b1-3)Gal(b1-4)GlcNAc(b1-3)Gal(b1-4)GlcNAc(b1-3)Gal(b1-4)GlcNAc(b1-3)Gal(b1-4)GlcNAc(b1-2)Man(a1-3)[Gal(b1-4)GlcNAc(b1-3)Gal(b1-4)GlcNAc(b1-3)Gal(b1-4)GlcNAc(b1-3)Gal(b1-4)GlcNAc(b1-3)Gal(b1-4)GlcNAc(b1-2)Man(a1-6)]Man(b1-4)GlcNAc(b1-4)[Fuc(a1-6)]GlcNAc
# Method in brief: as §1
# [13] = target: Gal(b1-4)GlcNAc(b1-3)Gal(b1-4)GlcNAc(b1-3)Gal(b1-4)GlcNAc(b1-3)Gal(b1-4)GlcNAc(b1-3)Gal(b1-4)GlcNAc(b1-2)[Gal(b1-4)GlcNAc(b1-3)Gal(b1-4)GlcNAc(b1-3)Gal(b1-4)GlcNAc(b1-3)Gal(b1-4)GlcNAc(b1-3)Gal(b1-4)GlcNAc(b1-6)]Man(a1-6)[Gal(b1-4)GlcNAc(b1-3)Gal(b1-4)GlcNAc(b1-3)Gal(b1-4)GlcNAc(b1-3)Gal(b1-4)GlcNAc(b1-3)Gal(b1-4)GlcNAc(b1-2)Man(a1-3)]Man(b1-4)GlcNAc(b1-4)[Fuc(a1-6)]GlcNAc
# Method in brief: as §1
# [14] = target: Gal(b1-4)GlcNAc(b1-3)Gal(b1-4)GlcNAc(b1-3)Gal(b1-4)GlcNAc(b1-3)Gal(b1-4)GlcNAc(b1-3)Gal(b1-4)GlcNAc(b1-3)Gal(b1-4)GlcNAc(b1-2)Man(a1-3)[Gal(b1-4)GlcNAc(b1-3)Gal(b1-4)GlcNAc(b1-3)Gal(b1-4)GlcNAc(b1-3)Gal(b1-4)GlcNAc(b1-3)Gal(b1-4)GlcNAc(b1-3)Gal(b1-4)GlcNAc(b1-2)Man(a1-6)]Man(b1-4)GlcNAc(b1-4)GlcNAc
# Method in brief: as §1
# [15] = target: Gal(b1-4)GlcNAc(b1-3)Gal(b1-4)GlcNAc(b1-3)GalNAc
# Method in brief: as §1
# [16] = target: Gal(b1-4)GlcNAc(b1-3)Gal(b1-4)GlcNAc(b1-3)[Gal(b1-4)GlcNAc(b1-3)Gal(b1-4)GlcNAc(b1-6)]GalNAc
# Method in brief: as §1
# [17] = target: Gal(b1-4)GlcNAc(b1-3)Gal(b1-4)GlcNAc(b1-6)[Gal(b1-3)]GalNAc
# Method in brief: as §1
# [18] = target: Gal(b1-4)GlcNAc(b1-3)Gal(b1-4)[Fuc(a1-3)]GlcNAc(b1-3)Gal(b1-4)[Fuc(a1-3)]GlcNAc
# Method in brief: as §1
# [19] = target: Gal(b1-4)GlcNAc(b1-3)GalNAc
# Method in brief: as §1
# [20] = target: Gal(b1-4)GlcNAc(b1-3)[Fuc(a1-3)GlcNAc(b1-6)]Gal(b1-4)Glc
# Method in brief: as §1
# [21] = target: Gal(b1-4)GlcNAc(b1-3)[Gal(b1-4)GlcNAc(b1-6)]Gal(b1-4)GlcNAc
# Method in brief: as §1
# [22] = target: Gal(b1-4)GlcNAc(b1-3)[GlcNAc(b1-6)]Gal(b1-4)GlcNAc
# Method in brief: as §1
# [23] = target: Gal(b1-4)GlcNAc(b1-6)Gal(b1-4)GlcNAc
# Method in brief: as §1
# [24] = target: Gal(b1-4)GlcNAc(b1-6)GalNAc
# Method in brief: as §1
# [25] = target: Gal(b1-4)GlcNAc(b1-6)[Gal(b1-3)]GalNAc
# Method in brief: as §1
# [26] = target: Gal(b1-4)GlcNAc(b1-6)[Gal(b1-4)GlcNAc(b1-3)]GalNAc
# Method in brief: as §1
# [27] = target: Gal(b1-4)GlcNAc6P
# Method in brief: as §1
# [28] = target: Gal(b1-6)Gal
# Method in brief: as §1
# [29] = target: Gal3S(b1-3)GalNAc
# Method in brief: as §1
# [30] = target: Gal3S(b1-3)GlcNAc
# Method in brief: as §1
binder,measurement,setting,value
B1,glycan array binding signal (z-score),[1],0.016
same,glycan array binding signal (z-score),[2],0.025
same,glycan array binding signal (z-score),[3],0.012
same,glycan array binding signal (z-score),[4],-0.209
same,glycan array binding signal (z-score),[5],0.047
same,glycan array binding signal (z-score),[6],0.042
same,glycan array binding signal (z-score),[7],0.041
same,glycan array binding signal (z-score),[8],-0.21
same,glycan array binding signal (z-score),[9],0.034
same,glycan array binding signal (z-score),[10],-0.043
same,glycan array binding signal (z-score),[11],0.044
same,glycan array binding signal (z-score),[12],-0.226
same,glycan array binding signal (z-score),[13],0.239
same,glycan array binding signal (z-score),[14],-0.163
same,glycan array binding signal (z-score),[15],-0.11
same,glycan array binding signal (z-score),[16],0.004
same,glycan array binding signal (z-score),[17],0.189
same,glycan array binding signal (z-score),[18],-0.196
same,glycan array binding signal (z-score),[19],-0.209
same,glycan array binding signal (z-score),[20],-0.345
same,glycan array binding signal (z-score),[21],-0.288
same,glycan array binding signal (z-score),[22],-0.219
same,glycan array binding signal (z-score),[23],-0.08
same,glycan array binding signal (z-score),[24],0.043
same,glycan array binding signal (z-score),[25],0.545
same,glycan array binding signal (z-score),[26],-0.07
same,glycan array binding signal (z-score),[27],-0.111
same,glycan array binding signal (z-score),[28],-0.191
same,glycan array binding signal (z-score),[29],-0.116
same,glycan array binding signal (z-score),[30],-0.163

# From the supplement of paper PMC8728848
